Measured values taken from PubChem BioAssay AID588855 (National Center for Advancing Translational Sciences (NCATS), 2011).
Screen size: about 410,000 compounds; about 5,000 (1.2%) were called active. This list was built around the results that the source calls inconclusive (neither active nor inactive); the mix of calls is not that of the screen. Calls follow the shape of the dose curve; as a rule, active = well fitted inhibition curve with a large enough effect; inconclusive = small, poorly fitted or top-dose-only effect; inactive = no such curve, though single readings can be large or run the other way. A potency beside an inconclusive call is a rough fit, not a confirmed value.

Assay: qHTS for Inhibitors of TGF-b; also: nearly all actives have a fitted effect of over 65% in size
Conditions: HepG2 CAGA-GFP TGF-b/SMAD3 reporter, GFP fluorescence, 18 h, TGF-beta stimulated, 500 pg/mL final; series mostly up to 46.1 µM; activity, negative = inhibition: at the top concentration
Source text: TGF-b is a main component in the TGF-b signaling pathway which plays diverse roles in cellular and development pathways. TGF-b is the mediated by the transcription factors Smads. Although the Smad-dependent pathway is the primary canonical TGF-b signaling node, TGF-b1 can also activate alternative signaling pathways, including those involving MAPK (ERK, JNK and p38). This interaction may mediate or enhance Smad-dependent responses, or can exert Smad-independent effects. The complexity of this signaling cascade allows the TGF-b superfamily to perform unique, overlapping or redundant functions. We believe that targeting the TGF-beta pathway at the Smad-transcription factor level may eliminate the consequences of disrupting the entire pathway and offer specificity without affecting other signaling pathways. Smad3 is the primary transducer of TGF-b's signals and Smad3 regulates many functions attributed to TGF-b signaling. We hypothesize that Smad3 inhibitors will selectively eliminate Smad3-specific TGF-beta signals without undesired off-target effects. We aim to identify Smad3-small molecule antagonists using a quantitative high throughput screening (qHTS) approach.
A high-throughput assay was developed to screen the NIH Molecular Libraries Small Molecule Repository (MLSMR). This is a cell based assay, where TGF-b is tagged with GFP. A counterscreen is run that looks at cytotoxicity (please see summary AID).
MH087449NIH Chemical Genomics Center [NCGC]
NIH Molecular Libraries Probe Centers Network [MLPCN]
Assay Submitter (PI): Sushil Rane, National Institute of […]
Suspensions of trypsinized HEPG2 CAGA-GFP cells were dispensed into white, tissue culture-treated, solid 1536-well plates at 5uL/well (1000 cells/well final concentration) in DMEM medium supplemented with 1% FBS. Plates were incubated at 37 degrees C for 2 hours, after which 23 nL of compounds or DMSO were delivered to each well using a pin tool. One uL of recombinant TGF-beta in DMEM (1% FBS) was then dispensed (500 pg/mL final concentration), and plates were incubated at 37 degrees C for 18 hours. The plates were measured on an Acumen eX3 Explorer plate reader for GFP fluorescence (ex488/em500-530). GFP values were calculated by determining the mean GFP fluorescence of individual cells, and compiling these values for each well to determine a total well GFP signal. The %Activity was determined from the corrected fluorescence values. A titration of the known TGF-B inhibitor SB431542 was included to monitor plate performance, while unstimulated HEPG2 (-TGF-B) control wells were used to normalize %Activity of identified inhibitors; unstimulated wells corresponded to 100%Activity (full inhibition), while stimulated cell controls (+DMSO) were used to normalize 0%Activity (no inhibition).
Concentration-response curves were fitted to the signals arising from the resulting fluorescence. The concentration-effect curves were then classified based on curve quality (r2), response magnitude and degree of measured activity, and compounds were subsequently categorized based on their curve class.
Potency is read from the fitted curve at half-maximal effect; tags tell the direction and shape of the fitted curve.

Row | SMILES | Potency | activity, negative = inhibition
1 | O=C(CCNc1cc(Cl)cc(Cl)c1)c1cccs1 | inconclusive: 35.5 µM [inhibitor, single point] | –
2 | COc1cccc(-c2csc3ncnc(Sc4nnnn4C)c23)c1 | inconclusive: 7.94 µM [inhibitor, partial curve, poor fit] | –
3 | Cc1nc(NC(C)c2ccccc2)c2c3c(sc2n1)CCC3 (configuration not stated) | inconclusive: 17.8 µM [inhibitor, single point] | –
4 | Cc1csc(NC(=O)Nc2ccc(Cl)cc2)n1 | – | inactive: -0.491%
5 | CC(C)CCN1C(Nc2ccccc2)=NC[C@@H]1C | inconclusive: 1.41 µM [inhibitor, partial curve, poor fit] | –
6 | Cc1ccc(S(=O)(=O)Nc2nc3ccccc3nc2Nc2cccc(S(=O)(=O)N3CCCC3)c2)cc1 | – | inactive: 42.5%
7 | CCN(C(=O)Cn1c(=O)oc2ccccc21)c1c(N)n(Cc2ccccc2)c(=O)[nH]c1=O | – | inactive: 11.7%
8 | COc1cc(S(=O)(=O)N(Cc2cccs2)CC2CCCO2)ccc1-n1cnnn1 (configuration not stated) | inconclusive: 20 µM [inhibitor, single point] | –
9 | COc1ccccc1NC(=S)N1CCN(c2cccc(C)c2C)CC1 | inconclusive: 15.8 µM [inhibitor, single point] | –
10 | CCn1cc(S(=O)(=O)N2CCc3ccccc3C2)cn1 | – | inactive: 5.03%
11 | O=[N+]([O-])c1ccc2nc(NCCCO)nc(-c3ccccc3)c2c1 | inconclusive: 35.5 µM [inhibitor, single point] | –
12 | CC1CCN(S(=O)(=O)c2ccc(NC(=O)CN3CCCC(C)C3)cc2)CC1 (configuration not stated) | inconclusive: 12.6 µM [inhibitor, single point] | –
13 | CCOC(=O)c1c(-c2ccco2)csc1NC(=O)COC(=O)c1cnccn1 | inconclusive: 3.16 µM [inhibitor, single point] | –
14 | CN(c1ccc(F)cc1)S(=O)(=O)N1CCCC(C(=O)NCc2ccccc2Cl)C1 (configuration not stated) | active: 11.2 µM | –
15 | COCCCNc1ncnc2ccc(C)cc12 | inconclusive: 35.5 µM [inhibitor, single point] | –
16 | CCCCn1c(N)c(N(CC(C)C)C(=O)CSc2nnc(C)n2-c2ccc(OC)cc2)c(=O)[nH]c1=O | – | inactive: 13.2%

Row | SMILES | Potency | activity, negative = inhibition
17 | CC1CN(C(=O)CCC(=O)N2CCN(c3cccc(C(F)(F)F)c3)CC2)c2ccccc2O1 (configuration not stated) | inconclusive: 22.4 µM [inhibitor, single point] | –
18 | COc1ccc(NC(=O)c2ccc(NC(=O)CN3CCN(c4ccccc4O)CC3)cc2)cc1 | inconclusive: 35.5 µM [inhibitor, single point] | –
19 | Cn1cc(S(=O)(=O)N2CCc3ccccc32)cc1C(=O)Nc1ccc(Cl)cc1 | inconclusive: 2.51 µM [inhibitor, full curve, poor fit] | –
20 | COc1ccc(-n2c(=O)c(CCC(=O)NCCc3ccccc3F)nc3ccccc32)cc1 | inconclusive: 35.5 µM [inhibitor, single point] | –
21 | COc1cc(-c2nnc(NC(=O)CCS(=O)(=O)c3ccc(F)cc3)o2)cc(OC)c1OC | inconclusive: 22.4 µM [inhibitor, single point] | –
22 | Cc1cc(Cl)c(OCCCn2ccnc2)c(Br)c1 | inconclusive: 12.6 µM [inhibitor, single point] | –
23 | COc1cccc(-c2nnc(SCC(=O)N(C)C3CCCCC3)o2)c1 | – | inactive: -7.64%
24 | CN1CCc2nc3sc(C(=O)c4ccc(F)cc4)c(N)c3cc2C1 | – | inactive: 46.5%
25 | Cc1cccc(N2CCN(C(=O)C3CCN(C(=O)c4cc5sccc5n4C)CC3)CC2C)c1 (configuration not stated) | inconclusive: 35.5 µM [inhibitor, single point] | –
26 | COc1cc(NC(=O)C2CCN(S(=O)(=O)c3ccc4[nH]c(=O)oc4c3)CC2)cc(OC)c1 | inconclusive: 22.4 µM [inhibitor, single point] | –
27 | COc1cc(SC#N)ccc1N=Cc1c(C)[nH]n(-c2ccc(C)c(C)c2)c1=O | inconclusive: 17.8 µM [inhibitor, partial curve, poor fit] | –
28 | Cc1c(Cl)cccc1NC(=O)CCS(=O)(=O)c1ccc2c(c1)CC(C)N2C(=O)C1CC1 (configuration not stated) | – | inactive: 0.777%
29 | O=[N+]([O-])C(/C=C(\Cl)[N+](=O)[O-])=C1N(Cc2ccc(Cl)nc2)CCN1Cc1ccc(Cl)nc1 | inconclusive: 11.2 µM [inhibitor, partial curve] | –
30 | N#Cc1nc(-c2cccc(Cl)c2)oc1NCc1cccnc1 | inconclusive: 2.51 µM [inhibitor, partial curve] | –
31 | O=C(Nc1cc(Cl)cc(Cl)c1)c1cc(S(=O)(=O)NC2CCCC2)ccc1F | inconclusive: 8.91 µM [inhibitor, partial curve] | –
32 | O=C(O)c1ccccc1-c1nc2ccccc2[nH]1 | – | inactive: -10.9%
